Whole data set: some 110,000 compounds, median “z-score” near -0.1, cut for the highest 2% near 2. The list shows a part of the results. Active and inactive are the calls of the source.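 How the source made its calls: active means z-score in the third read window above 3 or below -3; inactive means the rest.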
target: Metabotropic glutamate receptor 8 (Rattus norvegicus) (UniProt P70579); assay: rat mGluR8 modulators via GIRK flux, primary screen, cell-based, thallium flux, HTS (AID 488969); settings: HEK293 rat mGluR8, GIRK (G protein-gated inwardly rectifying potassium channel) thallium flux, FluoZin2; at 10 µM; stronger effect = higher value; submaximal glutamate (EC20) added with thallium
Chain of UniProt P70579 (P70579 whole entry, looked up): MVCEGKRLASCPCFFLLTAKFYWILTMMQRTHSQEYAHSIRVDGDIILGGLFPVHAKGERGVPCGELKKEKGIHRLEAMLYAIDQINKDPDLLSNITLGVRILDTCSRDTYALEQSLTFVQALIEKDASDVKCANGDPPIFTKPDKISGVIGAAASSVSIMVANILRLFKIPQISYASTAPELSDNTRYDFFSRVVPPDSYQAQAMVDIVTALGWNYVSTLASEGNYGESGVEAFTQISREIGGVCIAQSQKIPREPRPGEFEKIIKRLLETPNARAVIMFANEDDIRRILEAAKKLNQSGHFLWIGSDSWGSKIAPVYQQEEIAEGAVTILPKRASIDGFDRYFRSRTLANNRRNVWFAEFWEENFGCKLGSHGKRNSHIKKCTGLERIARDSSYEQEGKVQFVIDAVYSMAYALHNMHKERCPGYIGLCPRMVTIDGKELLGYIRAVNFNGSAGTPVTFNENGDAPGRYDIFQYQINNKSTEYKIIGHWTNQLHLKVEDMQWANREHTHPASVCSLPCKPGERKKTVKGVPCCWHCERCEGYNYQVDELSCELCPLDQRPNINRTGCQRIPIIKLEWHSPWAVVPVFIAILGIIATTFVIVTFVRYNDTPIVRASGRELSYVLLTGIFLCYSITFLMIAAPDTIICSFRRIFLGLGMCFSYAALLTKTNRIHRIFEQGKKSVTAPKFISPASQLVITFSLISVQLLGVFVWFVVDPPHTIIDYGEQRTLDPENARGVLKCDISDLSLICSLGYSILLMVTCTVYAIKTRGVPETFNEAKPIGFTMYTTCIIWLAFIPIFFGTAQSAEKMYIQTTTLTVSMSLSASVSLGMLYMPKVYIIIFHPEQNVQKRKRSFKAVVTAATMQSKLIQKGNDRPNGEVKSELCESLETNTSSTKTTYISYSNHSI

Row | SMILES | z-score
1 | CCOC(=O)c1cnn(-c2nc(SC)nc3sc4c(c23)CCC4)c1N | 0.312
2 | CC(=O)C1=C(C)NC(SCc2cccc3ccccc23)=C(C#N)C1c1ccco1 (centres undefined) | 0.063
3 | CCc1ccc(-c2nc(CN3CCC(C(=O)N4CCN(c5ccccc5)CC4)CC3)c(C)o2)cc1 | 2.2
4 | CCCCNC(=O)Cc1ccc(C)cc1 | 0.122
5 | Cc1ccc(Oc2ncc(CN3CCOCC3)s2)cc1 | -0.0551
6 | C=CCN(CC=C)C(=S)NC(=O)/C=C/c1ccc(C)cc1 | active: 4.57
7 | Cc1nn(CCC(=O)NNC(=S)Nc2ccc(Cl)cc2)c(C)c1[N+](=O)[O-] | 0.148
8 | Cn1c(=O)n(C)c2cc(S(=O)(=O)NCCO)ccc21 | -0.0413
9 | O=C(c1ccccc1)c1ccccc1C(=O)N1CCCC1 | 0.333
10 | O=C(NCCCc1ccccc1)c1cnc2n(c1=O)CCS2 | 0.994
11 | CCOC(=O)C1C(=O)CC(C)(O)C(C(=O)OCC)C1c1ccc(C)s1 (centres undefined) | 0.256
12 | OCCN1CCN(CC(O)COc2ccc(Cl)cc2)CC1 (centres undefined) | 0.191
13 | Cc1ccc(C)c(NC(=O)CCc2ccc(S(=O)(=O)NC3CCCCC3)cc2)c1 | 0.128
14 | Cn1c(=O)c2c(nc(N3CCN(c4ccccn4)CC3)n2Cc2ccc(Cl)cc2Cl)n(C)c1=O | -0.0775
15 | O=C(NC1CCS(=O)(=O)C1)C1CCCCN1S(=O)(=O)c1ccc(Cl)cc1 (centres undefined) | 0.322
16 | COc1ccc(NC(=O)N(CCN2CCCC2)Cc2cc3cc(OC)c(OC)cc3[nH]c2=O)cc1 | 0.14
17 | O=C(Cc1c(Cl)cccc1Cl)NCCc1ccc(Cl)cc1 | -0.198
18 | Cc1cc(C)cc(NC(=O)c2ccc(Cn3nc(C)c(Cl)c3C)o2)c1 | -0.275
19 | CCC1(C)Cc2c(sc(NC(=S)NC(=O)c3ccccc3)c2C#N)CO1 (centres undefined) | 0.143
20 | Cc1ccc(-c2[nH]ncc2/C=C(\C#N)C(=O)NC2CCCCC2)cc1 | -2.27
21 | COc1ccc(/C=N/NC(=O)c2ccc(O)cc2O)cc1CSc1ccccn1 | -0.674
22 | Nc1cccc(Nc2nc(OC(C(F)(F)F)C(F)(F)F)nc(OC(C(F)(F)F)C(F)(F)F)n2)c1 | -0.288
23 | O=C(CCc1ccccc1)Nc1nc2ccc(S(=O)(=O)N3CCOCC3)cc2s1 | -0.335

Row | SMILES | z-score
24 | O=C(CCc1ccc(S(=O)(=O)NCCc2ccccc2)cc1)NCc1ccc2c(c1)OCO2 | -0.111
25 | Cc1ccc(C(=O)c2cc([N+](=O)[O-])ccc2N2CCN(C)CC2)cc1 | -0.247
26 | COC(=O)CSc1cc(C(=O)c2nccn2C)c2ccccc2n1 | -0.0661
27 | CC1=C(C(=O)N2CCN(C(=O)c3ccco3)CC2)C2(CCC(C)CC2)OC1=O (centres undefined) | -1.61
28 | Cc1cc(C)c(S(N)(=O)=O)c(C)c1-n1cnnn1 | -0.382
29 | CCCn1nnnc1NC(=O)COc1ccc(Cl)cc1C | -0.772
30 | Cc1ccc(C(=O)Nc2nc(C)c(C)s2)o1 | -0.198
31 | Cc1ccc(S(=O)(=O)CC(O)CN2CCCC2=O)cc1 (centres undefined) | -0.0995
32 | CCc1nnc(NC(=O)CCC(=O)NCc2ccccc2OC)s1 | -0.0821
33 | CCOc1cc(C(=O)Nc2ccon2)cc(OCC)c1OCC | -0.616
34 | O=C(Nc1c(C(=O)C2CC2)oc2ccccc12)c1ccc(Cl)cc1 | -0.287
35 | CCN(CC)C(=O)CSc1nnc(COc2ccccc2)n1CC | -0.156
36 | CCc1cc2c(NCC3CCCO3)ncnc2s1 (centres undefined) | 0.0777
37 | COCCN(C(=O)COc1ccccc1)c1nnc(-c2cccnc2)s1 | -0.132
38 | COc1cccc(S(=O)(=O)NCc2ccc(C(=O)NCc3ccco3)cc2)c1 | -0.517
39 | O=C(COC(=O)c1cc(-c2cccs2)nn1-c1ccccc1)Nc1ccc(Cl)c([N+](=O)[O-])c1 | 0.0111
40 | Cc1ccc(C)c(N2CCN(C(=O)C3CCCN(S(=O)(=O)c4cnc[nH]4)C3)CC2)c1 (centres undefined) | -0.0761
41 | Nc1nnc(-c2ccc(F)cc2)s1 | 1.68
42 | CCC(C)n1cnc2c(c1=O)c1nc3ccccc3nc1n2Cc1ccc2c(c1)OCO2 (centres undefined) | -0.195
43 | O=C(c1cccc(-n2cnnn2)c1)N1CCOCC1 | -0.145
44 | COCC(=O)NC1CCN(C(=O)NCc2ccccc2)CC1 | -0.215
45 | COc1ccc(NC(=O)CN(C)S(=O)(=O)c2cccc3cccnc23)cc1 | -0.226
46 | C/C(Cl)=C/CSc1nnc2n(N)c(=O)c3ccccc3n12 | -1.04

Row | SMILES | z-score
47 | Cc1ccc(OCc2ccc(C(=O)Nc3nc4ccccc4n3C)o2)c([N+](=O)[O-])c1 | -0.373
48 | O=C1C(=O)N(c2cccc(Cl)c2)C(c2ccccc2[N+](=O)[O-])/C1=C(\O)c1ccccc1 (centres undefined) | -0.745
49 | O=C(O)CCc1ncc(C(F)(F)F)cc1Cl | -0.0945
50 | Cc1ccccc1S(=O)(=O)Cc1ccc(C(=O)N2CC(C)CC(C)C2)o1 (centres undefined) | -0.255
51 | CCOC(=O)C1CCCN(C(=O)CNS(=O)(=O)c2ccc(Br)s2)C1 (centres undefined) | 0.0342
52 | CC1=C(C(=O)Nc2ccccc2)C(c2ccco2)NC(=S)N1 (centres undefined) | -0.04
53 | COC(=O)c1ccc(C(=O)OCc2nc3cc4ccccc4cc3[nH]2)cc1 | -0.13
54 | O=C(COc1ccc(S(=O)(=O)NC2CCCCC2)cc1)NC1CCCCC1 | -0.031
55 | CCOc1ccc(S(=O)(=O)Nc2ccc(Cl)cn2)c(C)c1C | -0.393
56 | COc1ccc(-c2nc3ccccn3c2/N=C/c2ccc(OC)c(OC)c2)cc1O | -0.937
57 | COc1ccccc1NC(=O)Nc1ccc2c(c1)OCCO2 | 1.1
58 | COc1cc(NC(=S)NCc2ccco2)cc(OC)c1OC | -0.163
59 | CCn1nc(CC(=O)Nc2ccc(-n3cnnn3)c(C)c2)c2ccccc2c1=O | 0.00631
60 | CC(=O)Nc1ccccc1C(=O)C(=O)Nc1ccccc1 | -0.164
61 | COc1cccc(N(CC(=O)NCc2cccnc2)S(C)(=O)=O)c1 | active: 3.97
62 | Cc1sc2ncn(CC(=O)OC(C)C)c(=O)c2c1C | -0.0843
63 | CCN1/C(=C/C(C)=O)Sc2ccc(OC)cc21 | 0.45
64 | COC(=O)c1cccc(NC(=O)c2ccco2)c1 | -0.0291
65 | NNC(=O)c1ccc(COc2ccccc2)cc1 | -0.142
66 | O=C(c1ccc(Cl)c(S(=O)(=O)N2CCOCC2)c1)N1CCN(Cc2ccccc2)CC1 | -0.079
67 | Cc1nnc(SCC(=O)Nc2ccc(Br)cn2)[nH]c1=O | 0.0159
68 | CN(C)S(=O)(=O)c1cccc(C(=O)Nc2cc(Cl)cc(Cl)c2)c1 | -0.468
69 | O=C(Nc1cnn(C23CC4CC(CC(C4)C2)C3)c1)c1cc(-c2ccccc2)on1 | 0.107
